Test results taken from PubChem BioAssay AID2675 (National Center for Advancing Translational Sciences (NCATS), 2010).
In all, about 280,000 compounds went through this assay and about 100 (0.036%) were called active. The shares of active, inactive and inconclusive entries below differ from those in the screen. Calls follow the shape of the dose curve; as a rule, active = well fitted inhibition curve with a large enough effect in the signal ratio, with a control signal flat (not every such curve was filed as active); inconclusive = small, poorly fitted or top-dose-only effect, or effect the other way, or a change in a side signal; inactive = no such curve, though single readings can be large or run the other way; the % refers to the signal ratio. Potencies of inconclusive entries are doubtful fits and often do not repeat. “Side channel” marks fits to a control or component signal instead of the main read-out.
% is scaled to controls: 0 for no effect and ±100 for the full control effect; potency is read from the fitted curve at half-maximal effect; tags tell the direction and shape of the fitted curve or compound fluorescence and quenching.

Each compound was assayed against Muscleblind-like protein 1 (Homo sapiens) (UniProt Q9NR56) (assay: qHTS Assay for Inhibitors of MBNL1-poly(CUG) RNA binding). Conditions: TR-FRET MBNL1-His/biotin-(CUG)12 binding, 665/545 ratio; activity change, negative = inhibition: at 57.5 µM (top of the series).
UniProt Q9NR56, sequence (Q9NR56 whole entry, looked up): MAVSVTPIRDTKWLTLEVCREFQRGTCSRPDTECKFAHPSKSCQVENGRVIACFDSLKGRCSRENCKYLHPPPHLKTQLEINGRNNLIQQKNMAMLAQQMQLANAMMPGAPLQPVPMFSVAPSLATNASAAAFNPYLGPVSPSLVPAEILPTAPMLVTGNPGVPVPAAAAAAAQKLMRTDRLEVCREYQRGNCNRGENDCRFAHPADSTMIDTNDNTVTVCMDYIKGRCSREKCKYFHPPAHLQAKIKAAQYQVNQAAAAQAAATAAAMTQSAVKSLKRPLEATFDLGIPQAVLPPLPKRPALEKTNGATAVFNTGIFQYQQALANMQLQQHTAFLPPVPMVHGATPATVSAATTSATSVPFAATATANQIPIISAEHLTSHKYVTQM
Outline: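 Ratiometric TR-FRET (665 over 545 nm, excitation 340 nm) tracks disruption of MBNL1-His/biotin-(CUG)12 complex after 60 min at room temperature, with compounds at 92 nM to 58 uM final.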
In the case of `COc1ccc2nc(NC(=O)c3cccc(OCc4c(C)noc4C)c3)sc2c1`, the “activity change, negative = inhibition” value is reported as inactive: 0.391%. In the case of `CCc1ccc(NC(=O)c2cc(C(C)C)on2)cc1`, the “activity change, negative = inhibition” value is reported as inactive: -6.49%. `CN(C)/C=C1/Oc2c(ccc3ccccc23)C1=O` was tested, and the Potency was inconclusive: 22.4 µM [quencher, side channel, single point]. With `Cc1cc(C(=O)N/N=C/c2cc(Br)c(Br)o2)n[nH]1` the Potency was inconclusive: 12.6 µM [quencher, side channel, partial curve]. In the case of `Cc1noc(C)c1CSCc1ccc(Cl)cc1`, the “activity change, negative = inhibition” value is reported as inactive: 7.12%. `CCC(O)(CC)C(=O)N/N=C/c1cc(Br)cc(Br)c1O` was tested, and the “activity change, negative = inhibition” value was inactive: 15.9%. In the case of `O=[N+]([O-])c1ccc(-n2nnnc2-c2ccccc2)c([N+](=O)[O-])c1`, the Potency is reported as inconclusive: 0.316 µM [quencher, side channel, full curve, poor fit]. In the case of `O=C(CN1N=C(C(F)(F)F)CC1(O)c1ccc([N+](=O)[O-])cc1)c1ccccc1` (stereo unspecified), the Potency is reported as inconclusive: 1.12 µM [quencher, side channel, full curve]. With `CCc1ccc(-c2nc(CS(=O)CC(=O)NC3CC3)c(C)o2)cc1` (stereo unspecified) the “activity change, negative = inhibition” value was inactive: 1.82%. In the case of `C/C(=N/OC(=O)c1ccccc1Br)c1ccc(C)cc1`, the “activity change, negative = inhibition” value is reported as inactive: -6.38%. With `COc1cccc(CN2CCN(C3CCN(c4ccccc4F)CC3)CC2CCO)c1` (stereo unspecified) the “activity change, negative = inhibition” value was inactive: -2.66%. For `C=CCN1C(C(=O)c2ccccc2)=C(OC(=O)COc2ccccc2)c2ccccc2S1(=O)=O`, the activity change, negative = inhibition was inconclusive: -1.32% [phenotype inactive]. `Nc1ncnc(Sc2ccccc2)c1[N+](=O)[O-]` was tested, and the Potency was inconclusive: 25.1 µM [quencher, side channel, single point]. With `O=C(Nc1ccc(/C=C/c2nc3ccccc3o2)cc1)c1cccc(C(F)(F)F)c1` the “activity change, negative = inhibition” value was inactive: -2.55%. With `Cc1cc(C(=O)NNC(=O)c2ccc(C(F)(F)F)cc2)no1` the “activity change, negative = inhibition” value was inactive: -4.97%. In the case of `CN(C)S(=O)(=O)c1cccc(CNCC2COc3ccccc3O2)c1` (stereo unspecified), the “activity change, negative = inhibition” value is reported as inactive: 6.47%. With `O=C1CCC/C1=C/Nc1cccc(F)c1` the “activity change, negative = inhibition” value was inactive: 15.4%. `CCOC(=O)/C=c1\s/c(=C\c2ccccc2OC)c(=O)n1CC(=O)N1CCOCC1` was tested, and the Potency was inconclusive: 20 µM [quencher, side channel, partial curve]. In the case of `Cc1cc(C(C)(C)C)cc(C)c1COC(=O)c1cccnc1`, the “activity change, negative = inhibition” value is reported as inactive: -1.65%. For `C=CCNC(=O)c1ccc([N+](=O)[O-])c(Cl)c1`, the Potency was inconclusive: 44.7 µM [quencher, side channel, partial curve, poor fit]. `C/C(CC(=O)Nc1ccc(N(C)C)cc1)=N\NC(=O)c1ccccn1` was tested, and the Potency was inconclusive: 10 µM [inhibitor, single point]. With `CCCCC1(C(=O)OCC)CC(CN2CCOCC2)OC1=O` (stereo unspecified) the Potency was inconclusive: 8.91 µM [quencher, single point]. In the case of `O=C1c2ccc(Br)cc2C(=O)N1c1ccc(Cc2ccncc2)cc1`, the Potency is reported as inconclusive: 11.2 µM [quencher, side channel, partial curve]. In the case of `O=C(Cc1ccc(Cl)cc1)Nc1ccc(C(=O)N2CCCCC2)cc1`, the Potency is reported as inconclusive: 31.6 µM [quencher, side channel, partial curve]. For `O=C(O)c1cccc(Cn2c(Cl)c(/C=N/NC(=O)c3ccc(O)cc3)sc2=O)c1`, the Potency was inconclusive: 15.8 µM [quencher, side channel, partial curve]. With `CC(C(=O)Nc1cccnc1)c1ccc([N+](=O)[O-])cc1` (stereo unspecified) the Potency was inconclusive: 28.2 µM [quencher, side channel, single point]. `Cc1ccc(/C=N/Nc2nc(Cl)c(Cl)cc2Cl)s1` was tested, and the “activity change, negative = inhibition” value was inactive: -0.51%. `CN(C)c1ccc(/C=N\NC(=O)c2csnn2)cc1` was tested, and the Potency was inconclusive: 14.1 µM [quencher, side channel, partial curve]. With `COc1ccc(C(=O)NC(C)CCc2ccccc2)cc1[N+](=O)[O-]` (stereo unspecified) the “activity change, negative = inhibition” value was inactive: 10.4%. For `COc1cc(/C=C2\C(=O)ON=C2c2ccccc2)cc(Br)c1O`, the Potency was inconclusive: 25.1 µM [quencher, side channel, single point]. In the case of `O=C(CSc1nnc(NC(=O)C2CCC2)s1)Nc1ccc(N2CCOCC2)cc1`, the “activity change, negative = inhibition” value is reported as inactive: 5.34%. For `CC(C)(C)C(=O)NC(=S)NNC(=O)c1ccc(-c2ccccc2)cc1`, the “activity change, negative = inhibition” value was inactive: 4.1%. `Cc1cc(=O)oc2cc(OCC(=O)N/N=C/c3ccccc3[N+](=O)[O-])ccc12` was tested, and the Potency was inconclusive: 6.31 µM [quencher, side channel, single point]. For `CC1=NN(c2nc(-c3ccc(C)cc3)cs2)C(=O)C1N=Nc1ccccc1O` (stereo unspecified), the “activity change, negative = inhibition” value was inactive: 15.5%. With `COc1cc(NC(=O)C(C)Oc2ccccc2)c(OC)cc1NC(=O)c1ccccc1` (stereo unspecified) the “activity change, negative = inhibition” value was inactive: -5.44%. For `Cc1cc(C)c2[nH]c(O)c(N=NC3=NC(=O)CS3)c2c1`, the Potency was inconclusive: 12.6 µM [quencher, side channel, partial curve]. In the case of `O=[N+]([O-])c1ccc(Cl)cc1Sc1ccccn1`, the Potency is reported as inconclusive: 12.6 µM [quencher, side channel, partial curve]. In the case of `CCOC(=O)c1sc2nccc(N(C)C)c2c1N=CNOC`, the Potency is reported as inconclusive: 39.8 µM [quencher, single point]. For `COc1ccc2[nH]c(=O)c(CN(C(C)=O)C3CCCCC3)cc2c1`, the “activity change, negative = inhibition” value was inactive: -13.4%. `CCOC(=O)c1ccc(CNC(=O)CSc2nnc(-c3ccncc3)o2)cc1` was tested, and the Potency was inconclusive: 1.41 µM [fluorescent, side channel, full curve]. For `O=C(Cc1ccccc1)NC1CCN(Cc2ccccc2)CC1`, the “activity change, negative = inhibition” value was inactive: -5.36%. `CCCNCc1cc(Cl)c(OCC)c(Cl)c1` was tested, and the Potency was inconclusive: 39.8 µM [quencher, side channel, single point]. With `CCn1c(SCC(=O)Nc2ccc(Cl)cc2)nnc1C1CC1` the Potency was inconclusive: 20 µM [inhibitor, single point]. In the case of `COc1cc(O)ccc1/C=N/NC(=O)c1ccc([N+](=O)[O-])cc1`, the Potency is reported as inconclusive: 7.94 µM [quencher, side channel, partial curve]. For `CCS(=O)(=O)c1c([N+](=O)[O-])ncn1C`, the Potency was inconclusive: 7.08 µM [quencher, side channel, single point]. For `O=S(=O)(c1cccc2nonc12)N1CCCCCC1`, the Potency was inconclusive: 17.8 µM [quencher, side channel, partial curve].
